Source: PubChem BioAssay AID588453 (National Center for Advancing Translational Sciences (NCATS), 2011)
Values joined by “and” are separate entries in the source; they are usually repeats but may differ in a detail not shown here. Identical values can stand only once. Among all 390,000 compounds or so, about 4,000 (1%) were called active. The shares of active, inactive and inconclusive entries below differ from those in the screen. Calls come from the whole dose curve; as a rule, active = well fitted inhibition curve with a large enough effect; inconclusive = small, poorly fitted or top-dose-only effect; inactive = no such curve, though single readings can be large or run the other way. A potency beside an inconclusive call is a rough fit, not a confirmed value.

Biological target: Thioredoxin reductase 1, cytoplasmic (Rattus norvegicus) (UniProt O89049)
Test: qHTS Assay for Inhibitors of Mammalian Selenoprotein Thioredoxin Reductase 1 (TrxR1): qHTS; note: nearly all actives have a fitted effect of over 65% in size
Details: recombinant rTrxR1, NADPH fluorescence consumption, selenite substrate; series mostly up to 114 µM
Outline: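 Rat TrxR1 (90 nM in the dispensed reagent) was pre-reduced with 400 uM NADPH for 5 min at room temperature, then incubated with compound for 15 min. After 400 uM selenite was added, NADPH fluorescence (Ex 340/Em 450 nm) was followed for 8 min.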
% is set by controls: 0 for no effect and ±100 for the full control effect; potency is the fitted concentration of half-maximal effect; tags give direction and shape of the fitted curve.

Chain of UniProt O89049 (O89049 whole entry, looked up): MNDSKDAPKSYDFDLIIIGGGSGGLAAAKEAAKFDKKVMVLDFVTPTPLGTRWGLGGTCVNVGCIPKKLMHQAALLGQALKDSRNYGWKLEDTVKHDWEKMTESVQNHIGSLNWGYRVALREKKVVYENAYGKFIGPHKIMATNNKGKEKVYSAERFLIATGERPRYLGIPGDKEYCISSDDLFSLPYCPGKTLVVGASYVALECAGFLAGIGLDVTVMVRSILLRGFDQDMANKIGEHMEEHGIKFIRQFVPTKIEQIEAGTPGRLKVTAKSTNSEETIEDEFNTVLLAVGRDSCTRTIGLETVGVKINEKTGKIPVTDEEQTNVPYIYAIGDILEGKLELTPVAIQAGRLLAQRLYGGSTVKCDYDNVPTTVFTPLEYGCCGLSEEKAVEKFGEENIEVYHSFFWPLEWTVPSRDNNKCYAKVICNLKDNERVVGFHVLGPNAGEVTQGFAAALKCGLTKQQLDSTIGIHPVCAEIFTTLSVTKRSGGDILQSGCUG

| SMILES | Potency | activity change, negative = inhibition |
| --- | --- | --- |
| O=C(CCCN1CCC(O)(c2ccc(Cl)cc2)CC1)c1ccc(F)cc1 | inconclusive: 2.67 µM [inhibitor, partial curve] |  |
| Cc1onc(-c2ccccc2)c1-c1n[nH]c(=S)n1-c1ccccc1Cl | inactive |  |
| COc1cc(OC)c(NC(=O)C(CC(C)C)N2Cc3ccccc3C2=O)cc1Cl (stereo not drawn) | inactive |  |
| Cc1cc(C)cc(OC(=O)CCN2C(=O)c3ccccc3C2=O)c1 | inconclusive: 11.2 µM [inhibitor, partial curve, poor fit] |  |
| CCCOc1ccc(NC(=O)CC2C(=O)N(CC)C(=S)N2Cc2cccs2)cc1 (stereo not drawn) | inactive |  |
| O=C(O)COc1ccccc1C(Nc1cccnc1)c1cc(Cl)c2cccnc2c1O (stereo not drawn) | active: 0.562 µM |  |
| CC(=O)Nc1cccc(NC(=O)CS(=O)(=O)c2cn(CC(=O)N3CCCC3)c3ccccc23)c1 | inconclusive: 70.8 µM [inhibitor, partial curve] |  |
| CC(=O)Nc1ccc(C(=O)N/N=C(\C)CC(=O)Nc2ccc(OCc3ccccc3)cc2)cc1 | inconclusive: 70.8 µM [inhibitor, partial curve] |  |
| CCCCCCCCCCCCCCCC[n+]1ccc(C)c2ccccc21 | inconclusive: 70.8 µM [inhibitor, partial curve, poor fit] |  |
| Cc1ccccc1-n1c(-c2csc3ccccc23)n[nH]c1=S | inconclusive: 39.8 µM [inhibitor, single point] |  |
| COc1cc2nc(=S)n3[nH]c(COc4ccccc4C)nc3c2cc1OC | inconclusive: 11.2 µM [inhibitor, full curve] |  |
| CCCNC(=O)c1nnsc1S(=O)(=O)c1ccc(Cl)cc1 | inconclusive: 0.398 µM [inhibitor, full curve, poor fit] |  |
| c1ccc2c(c1)OCC(CNc1ncnc3sccc13)O2 (stereo not drawn) | inactive |  |
| CCC(C(=O)NCCc1ccc(OC)c(OC)c1)n1nc(C)c2sc3ccccc3c2c1=O (stereo not drawn) | inactive |  |
| CCC(C)n1c(OC)nc2c1c(=O)n(C)c(=O)n2C (stereo not drawn) |  | inactive: 1.44% [at 11.4 µM] |
| Cc1c(-c2ccccc2)nc(N)c(C#N)c1-c1ccco1 | inconclusive: 31.6 µM [inhibitor, single point] |  |
| COc1ccc(/C=C2\CCc3c2nc2ccccc2c3C(=O)O)cc1OC | inactive |  |
| Cc1ccccc1Nc1nc(N)nc(COC(=O)/C=C/c2ccco2)n1 | inconclusive: 44.7 µM [inhibitor, partial curve] |  |
| CCOC(=O)c1c(-c2ccc(C)o2)csc1NC(=O)CN(C)CC(=O)Nc1ccc(C)cc1 | inconclusive: 44.7 µM [inhibitor, partial curve] |  |
| COCCn1c(SCC(=O)c2ccc(F)cc2)nnc1C(C)C | inconclusive: 39.8 µM [inhibitor, partial curve, poor fit] |  |
| COCCn1c(C)cc(O)c(C(c2cccc(F)c2)N2CCN(c3ccccc3)CC2)c1=O (stereo not drawn) | inconclusive: 7.94 µM [inhibitor, partial curve, poor fit] |  |
| Cc1ccc(OCCCC(=O)Nc2sc3c(c2C(N)=O)CCC(C)C3)cc1 (stereo not drawn) | inactive |  |

| SMILES | Potency | activity change, negative = inhibition |
| --- | --- | --- |
| CC(C)NC(=O)C1CCCN(S(=O)(=O)c2ccc3c(ccn3C)c2)C1 (stereo not drawn) | inactive |  |
| Cc1ccc(-c2n[nH]c(=S)n2/N=C/c2c(C)[nH]n(-c3ccccc3)c2=O)cc1 | inconclusive: 20 µM [inhibitor, partial curve] |  |
| CCn1ncc(Cl)c1C(=O)NC(=S)Nc1ccccc1Br | inconclusive: 31.6 µM [inhibitor, single point] |  |
| CCc1cccc(OCCCCNCCO)c1 | inactive |  |
| Cc1cc(C(=O)OCC(=O)Nc2ccc(S(=O)(=O)N3CCOCC3)cc2)c(C)o1 | inconclusive: 17.8 µM [inhibitor, single point] |  |
| CC(/C=N/n1c(-c2ccc(Cl)cc2)n[nH]c1=S)=C\c1ccco1 | inconclusive: 39.8 µM [inhibitor, partial curve] |  |
| CCc1ccc(CNC(=O)c2ccc(Cn3c(=O)c4cccn4c4cccnc43)cc2)cc1 | inactive |  |
| O=C1CC(c2ccc3ccccc3c2)NN1 (stereo not drawn) | inconclusive: 50.1 µM [inhibitor, single point] |  |
| CCN1C(=O)C(Cc2nc3ccccc3c(=O)n2-c2cccc(C)c2)c2ccccc21 (stereo not drawn) | inactive |  |
| CC1=C(C(=O)O)N2C(=O)[C@@H](NC(=O)C(N)C3=CCC=CC3)[C@H]2SC1 (stereo partly drawn) | inconclusive: 13.4 µM [inhibitor, partial curve, poor fit] |  |
| CCCC(=O)N1c2nc(-c3ccco3)nn2C2(CCCCC2)[C@@H]2CCCC[C@@H]21 | inconclusive: 79.4 µM [inhibitor, partial curve, poor fit] |  |
| CCOc1ccc(C(=O)CCC(=O)NNC(=O)c2ccncc2)cc1 | inconclusive: 44.7 µM [inhibitor, partial curve] |  |
| C=CCN1CCc2c(cc(O)c(O)c2Cl)C(c2ccccc2)C1 (stereo not drawn) | inconclusive: 21.2 µM [inhibitor, single point] and inconclusive: 8.91 µM [inhibitor, partial curve, poor fit] |  |
| O=C1CCN(Cc2ccccc2)S(=O)(=O)c2c(F)cc(F)cc21 | inconclusive: 31.6 µM [inhibitor, partial curve] |  |
| O=C(c1ccc(Br)o1)N1N=C(c2ccc(Cl)cc2)CC1c1ccco1 (stereo not drawn) | inconclusive: 50.1 µM [inhibitor, partial curve, poor fit] |  |
| CCN(CC(=O)Nc1ccc(NC(C)=O)cc1)C(=O)/C=C/c1ccc(C)o1 | inconclusive: 56.2 µM [inhibitor, partial curve, poor fit] |  |
| Cc1ccc(S(=O)(=O)CCC(=O)c2ccc(F)cc2)cc1 | active: 1.58 µM |  |
| COc1ccc(Cc2c(C)nn(-c3nc(C)c(C(=O)Nc4cccc(C(C)=O)c4)s3)c2C)cc1 | inactive |  |
| CCCCN(C(=O)CSc1c(C)c(C)cc(C)c1C)c1c(N)n(CCC)c(=O)[nH]c1=O | inactive |  |
| C#CCNCCS(=O)(=O)N(Cc1ccc(Br)cc1)[C@@H](CC(C)C)C(=O)O | inconclusive: 79.4 µM [inhibitor, partial curve] |  |
| COc1cc2c(=O)n(CC3CCCO3)c(=O)n(CC(=O)Nc3ccc(F)cc3F)c2cc1OC (stereo not drawn) | inconclusive: 50.1 µM [inhibitor, partial curve] |  |
